# Assay results reported in the supplement of paper PMC11417369.
# ± gives the standard deviation of the averaged measurements. The list shows a part of the results.
# Test system: PfAP2-EXP AP2 domain (GST-tagged)
# Assay: gcPBM binding intensity (ln(normalized median fluorescence intensity)); higher = stronger DNA binding
# Summary of the method: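 The binding buffer was 1× PBS containing 1% milk, 0.2 mg/ml BSA, 0.5% salmon testes DNA and 0.03% Triton X-100. In it, GST-tagged P. falciparum DNA-binding domains expressed in E. coli were applied for 1 h to an Agilent 4 × 180k array of primer-extended double-stranded 36-bp intergenic genomic probes plus negative controls. Binding intensity, read with Alexa488 anti-GST antibody and a 488 nm scan, is the highest Masliner-normalised natural-log median intensity across replicate spots of either probe orientation.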
row,Sequence,gcPBM binding intensity (ln)
1,AATGCGCATTTTTTTTTTTTTTTTTTTTTTTTTTTT [XGTACX_negctrl_site258],9.36 ± 0.25
2,ATATATATATATATGTGTACATATTAGTGATATAAT [XGTACX_site7161],9.97 ± 0.45
3,TAAGCCACCATATTTACACACACATCAAAATGTATT [CACACA_site1815],8.52 ± 0.33
4,ATAAAGCCATACAATACACACATTTTACATGTCGGT [CACACA_site3265],8.52 ± 0.46
5,ATTCTATATGTTACATAAACCTATATTTTTTTTTTT [CACACA_negctrl_site860],8.57 ± 0.4
6,GAAAAAAGAAATTTATGTACATACATATATATATAT [XGTACX_site7888],10 ± 0.28
7,ATATGTAAAATATGGGGTACGAAGGTAGGTAGGTAA [XGTACX_site1392],9.24 ± 0.49
8,AAAAAAAAAAAAAAAAGTACATATGCTCAAGAGATG [XGTACX_site3783],8.77 ± 0.23
9,TTTTTTTTTTAATTAACACACATAAATATAAATATA [CACACA_site7527],8.16 ± 0.33
10,TATATATATATATATACATGCATCATTGTTCACCTT [TGCATGCA_site177],10.1 ± 0.36
11,TAATATTGACTATATACACACATATAAATATAAATA [CACACA_site6414],8.4 ± 0.33
12,CATTCAAAGAAAAACAGTACGTGTAGCAAAAGGCCT [XGTACX_site266],8.89 ± 0.62
13,TAAATAATATAATTATGTACGTATTTCTTTATTTTA [XGTACX_site8410],8.34 ± 0.3
14,GCTGAAAATAAATGAAGTACACAAGTAATATATATA [XGTACX_site6205],8.96 ± 0.23
15,TAATAAATAAAATATGCACACAAATATAGGAAACAA [CACACA_site8820],9.03 ± 0.18
16,TAAAAGGTGTATATAATACACACGTGGGATTAGAAT [CACACA_site610],8.89 ± 0.42
17,ATATATATATATATATGTACATAATAATATATATTA [XGTACX_site111],10.1 ± 0.23
18,ATATGTTATATGTAATGTACTTTTGATGTATATATT [XGTACX_site8615],8.44 ± 0.41
19,AAAATATTATAAATTTGTACTTATAAATATTGTATA [XGTACX_site8165],8.18 ± 0.41
20,AAAATAAACAATGAACAATAAACAATGAACAATGAA [CACACA_negctrl_site1194],8.79 ± 0.45
21,AAAAAATATACATATACACACATATGTATATAGAAT [CACACA_site2170],8.38 ± 0.23
22,TATATAAAGCATTGTAGTACTACCAATATTTTTTTT [XGTACX_site3523],8.54 ± 0.2

row,Sequence,gcPBM binding intensity (ln)
1,ATATGTAAATAAATATGTACTCATTTATTATTTTAT [XGTACX_site8748],8.51 ± 0.3
2,CGTTATATATATAAAAGTACAAAAATTAAACATTCC [XGTACX_site4568],8.63 ± 0.4
3,ATATATACAAGTATTTTTTTTTCAAACATTATTTTT [CACACA_negctrl_site1808],8.35 ± 0.37
4,ATATTTTATGTGTTGGTGCACATCTTTATTTAAACT [GTGCAC_site9736],9.06 ± 0.2
5,ATATGTATATTTTTTTGTACGTATTTATGTGTGTGT [XGTACX_site2093],8.73 ± 0.43
6,ATATATATAATATAATGTACGTATAATAATATGAGA [XGTACX_site2282],8.76 ± 0.33
7,TTCAATAGTAAGTATACACACATATATATATATAAA [CACACA_site2687],8.8 ± 0.38
8,TAATTCGCAAAAGAAAGAAATTAAGAAAAAGAAAAA [XGTACX_negctrl_site614],8.32 ± 0.68
9,CAAGCTATGTATTCTACACACACATACACCCATATA [CACACA_site9133],8.9 ± 0.6
10,TTTCTTTTTTTTTTTTCATTGATCCATTTATGATTA [TGCATGCA_negctrl_site225],8.39 ± 0.57
11,TTATAGGTTCTATACATATATTTATATATGTACAGA [CACACA_negctrl_site60],8.02 ± 0.34
12,TTTTTAAAAATATACACACACAGATATTATAGATAT [CACACA_site6511],8.61 ± 0.57
13,TTAATATATTAAATCTTACACACTAAAAAATATGTA [CACACA_site307],8.1 ± 0.38
14,TAAAAAAAATAAACGTGTACATAAAAATGAATATGT [XGTACX_site119],8.92 ± 0.3
15,AGTATACATATATATACACACACACCGATATATATA [CACACA_site8357],8.75 ± 0.4
16,TATGCGTCTTGCCTTGCACACTTTTATGAAAAAAAA [CACACA_site5174],8.54 ± 0.22
17,AACGTTAAAAAAAAAATATATATAAGGAGAAAGCAC [XGTACX_negctrl_site338],9.14 ± 0.33
18,GAAAATATTATAGCACCACACACTTATTTTATATAT [CACACA_site2265],8.74 ± 0.27
19,TCGTACTTGTATTATGCACACATATAATTAAACATA [CACACA_site9089],8.65 ± 0.18
20,AATAATCAAATATTAAAAATTGTGCAAAAAAAAAAA [XGTACX_negctrl_site399],8.62 ± 0.38
21,AAAAAAAAAAATATATTATTTTACTTGTTTATTTTT [GTGCAC_negctrl_site435],8.16 ± 0.35
22,TATGAAAAAATATATACACACATAATAAAGGTATAT [CACACA_site3737],8.67 ± 0.45
